According to patent US20230295308A1, “ANTAGONISTIC BIPARATOPIC ANTIBODIES THAT SPECIFICALLY BIND FIBROBLAST GROWTH FACTOR RECEPTOR 2 AND METHODS OF USING SAME” (The Broad Institute, Inc., priority 2020, published 2023):

Columns and labels:
[1] = biological target: FGFR2 on SNU-16 gastric cancer cell line with FGFR2 amplification (UniProt P21802); assay: FACS on SNU-16 cells, % No. of cells with FITC+ [cont.]
[2] = biological target: FGFR2 on SNU-16 gastric cancer cell line with FGFR2 amplification (UniProt P21802); assay: row 'Kd (nM) (FACS)'; FACS on SNU-16 cells

EC50 (read off the curve) [1]: 4 µg/mL
Kd [2]: 30.7 nM
B1: GAL-FR23 (antibody, V domains shown)
VH: QIQLVQSGPELKKPGETVKISCKASGYTFTDFGMNWMKQAPGKGFKWMGWINTSTGESTYADDFKGRFAFSLETSASTAYLQINNLKNEDMATYFCARNSYYGGSYGYWGQGTTLTVSS
VL: DIVMSQSPSSLAVSVGEKVTMK[no letters for about 80 residues]FGGGTKLEIK
